For five compounds, cell count results are on record in the supplement of paper PMC4604168 (melanoma cell lines).

SMILES strings stand for the structures. The list shows a part of the results. Repeats are few or missing, and single values can be far off.
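Further: cell number obtained by counting DAPI-stained nuclei in high-throughput microscope images with image analysis software, screen run in 1,536-well plates.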

For the test, the system named is WM1716. As to the kind of experiment: cell count relative to DMSO control; melanoma cells; higher = more viable cells. Particulars: library dose: low library concentration; 72 h.
`Nc1ncn([C@H]2C[C@H](O)[C@@H](CO)O2)c(=O)n1` [decitabine] + c1cc(-c2cnn3cc(-c4ccc(OCCN5CCCCC5)cc4)cnc23)ccn1 [Dorsomorphin] (first compound 0.1 µM, partner dose 0.4 µM) returned a cell count of 102%.

Regarding `Nc1ncn([C@H]2C[C@H](O)[C@@H](CO)O2)c(=O)n1` [decitabine] + O=C(Nc1ccccc1)c1cc([N+](=O)[O-])ccc1Cl [GW9662] (first compound 0.1 µM, partner dose 2 µM), the cell count came to 91.4%. In turn, `Nc1ncn([C@H]2C[C@H](O)[C@@H](CO)O2)c(=O)n1` [decitabine] + O=C(Nc1cccc(Cl)c1)Nc1ncc(CCNc2ncnc3ccsc23)s1 [SNS314] (first compound 0.1 µM, partner dose 0.0008 µM) had a cell count of 78.8%. As for `CC(=O)O[C@@]12CO[C@@H]1C[C@H](O)[C@@]1(C)C(=O)[C@H](O)C3=C(C)[C@@H](OC(=O)[C@H](O)[C@@H](NC(=O)OC(C)(C)C)c4ccccc4)C[C@@](O)([C@@H](OC(=O)c4ccccc4)[C@H]21)C3(C)C` [Docetaxel] + Cn1cncc1[C@@](N)(c1ccc(Cl)cc1)c1ccc2c(c1)c(-c1cccc(Cl)c1)cc(=O)n2C [tipifarnib] (first compound 0.0001 µM, partner dose 0.01 µM), the figure is 31.8%; as for `Nc1nc(F)nc2c1ncn2[C@@H]1O[C@H](CO)[C@@H](O)[C@@H]1O` [fludarabine] + CC1(C)NC(=O)N(c2ccc([N+](=O)[O-])c(C(F)(F)F)c2)C1=O [nilutamide] (first compound 0.2 µM, partner dose 1 µM), 102%.
